Values marked as one replicate rest on one cluster of the flow cell; about a third of the high ones do not repeat.
The sequences below were run on ATP (assay: switch fluorescence ratio, 500 uM ATP over buffer (Cy3 cluster intensity, sum of 5 cycles each) (fold (ratio)); higher = stronger signal-on switching upon ATP binding; sequences stand for … in TCGTCGGCAGCGTCAGATGTGTATAAGAGACAGTTTTTTTTTTTTTTTTTTTTTTTTT…TC). Details: aptamer strand: ATP DNA aptamer (quencher-CACCTGGGGGAGTATTGCGGAGGAAGG + anchor), 100 nM annealed; ATP concentration: 500 uM; one replicate.
In short: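 Values give the fluorescence ratio for each switch-domain sequence, averaged from per-cluster ratios of summed target-cycle to summed buffer-cycle Cy3 intensity. The Cy3-labelled switching-strand clusters sat on a modified Illumina MiSeq flow-cell, were annealed to 100 nM quencher-labelled ATP aptamer, and were imaged in selection buffer, then after 15 min with 500 uM ATP at 22 °C. Five cycles ran with NaOH stripping and re-annealing between them, and clusters outside 100-1000 RFU were excluded.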
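Also: ATP exposure 15 min at 22 °C before imaging.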

Sequence | switch fluorescence ratio
ACGTAGGGCT | 0.984
ACGTAGTACG | 1.06
ACGTAGTGTA | 1.01
ACGTAGTGTG | 1.04
ACGTATAGCA | 1.11
ACGTATTCGA | 1.07
ACGTCACGCA | 1.65
ACGTCAGGG | 1.08
ACGTCCAGAG | 1.1
ACGTCCTTCA | 1.34
ACGTCGGC | 1.03
ACGTCTCTTG | 0.985
ACGTGAACGC | 1.09
ACGTGACAA | 1.23
ACGTGGCCGG | 1.04
ACGTGGTCTA | 1.01
ACGTGTTAAG | 1.09
ACGTGTTACG | 1.02
ACGTTAACCA | 1.23
ACGTTAACCT | 1.47
ACGTTACACT | 1.49
ACGTTCATC | 1.06
ACGTTCTTAG | 1.01
ACGTTGCTAT | 1
ACGTTTCCGC | 1.24

Sequence | switch fluorescence ratio
ACTAAAGCAG | 1.05
ACTAACTATG | 1.1
ACTAACTGGT | 1.12
ACTAAGAGTA | 0.987
ACTAAGGCA | 1.02
ACTAAGTTCA | 1
ACTAATACCC | 1.12
ACTAATATCA | 1.05
ACTAATCTTG | 1.04
ACTAATGATG | 0.947
ACTAATGGTA | 1.01
ACTAATTGTA | 1.04
ACTAATTTTT | 1.05
ACTACAAGT | 1.03
ACTACATAAT | 1.06
ACTACCCCGC | 2.01
ACTACCGCAT | 2.24
ACTACGAGGA | 1.05
ACTACGCACT | 2.96
ACTACTGGCA | 1.09
ACTACTTTAT | 0.999
ACTAGAATCG | 0.985
ACTAGCTTTT | 1.04
ACTAGGATAT | 1.02
ACTAGGTAAA | 1

Sequence | switch fluorescence ratio
ACTAGTGCGC | 1.03
ACTATGAGAG | 0.987
ACTATTCAA | 1.04
ACTCAACGCG | 1.07
ACTCAAGTT | 1.08
ACTCAATAGC | 1.43
ACTCAATGTC | 1.05
ACTCACCATC | 1.25
ACTCACGAGC | 1.35
ACTCAGATCG | 1.05
ACTCATCACG | 1.13
ACTCATTATC | 1.01
ACTCATTTTT | 1.03
ACTCCAAGCG | 1.34
ACTCCGATCG | 1.49
ACTCCTGAAG | 0.995
ACTCCTGTGA | 1.3
ACTCGACAAG | 1.14
ACTCGAGGCG | 0.976
ACTCGATGAA | 0.983
ACTCGGCGGC | 1.68
ACTCGTCTGA | 1.02
ACTCTAACCG | 1.05
ACTCTAATGG | 1.06
ACTCTCATCT | 0.994

Sequence | switch fluorescence ratio
ACTCTCTCTC | 1.02
ACTCTTGGT | 0.993
ACTCTTGTGT | 0.993
ACTGAAAGGT | 0.993
ACTGACGGGA | 1.38
ACTGAGATGG | 1.03
ACTGATGCAA | 1.19
ACTGCAGGCC | 0.947
ACTGCCTGGT | 1.03
ACTGCTCCCG | 1.05
ACTGCTCCGA | 1.3
ACTGGATTAA | 0.994
ACTGGATTGC | 1.02
ACTGGCATGC | 1.04
ACTGGTAAAT | 0.969
ACTGTAACCG | 1.13
ACTGTAAGTT | 0.992
ACTGTAGGAG | 1.12
ACTGTCACCC | 1.31
ACTGTCGCGA | 0.937
ACTGTCGTGA | 1
ACTGTGTAGT | 1.01
ACTGTTCTG | 0.981
ACTGTTGGA | 0.95
ACTGTTGGGT | 0.992

— the supplement of paper PMC10126150
